# Measurements taken from PubChem BioAssay AID1948 (National Center for Advancing Translational Sciences (NCATS), 2009).
# About 20 (0.02%) of roughly 110,000 compounds were called active. Inconclusive means that the source gave no clear call. Such entries were picked first, then a sample of the others. The call rests on the fitted dose curve; in most records, active means well fitted activation curve with a large enough effect; inconclusive means small, poorly fitted or top-dose-only effect; inactive means no such curve, though single readings can be large or run the other way. Where the call is inconclusive, the potency comes from a doubtful curve fit.
# Experiment: qHTS Assay for Compounds that Induce Erasure of Genomic Imprints;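 on activity change, positive = activation: 0% = negative control wells on the plate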
# Conditions: mouse ES Peg3-LacZ reporter, beta-gal luminescence, 40 h; activity change, positive = activation: at 10.9 µM (top of the series) unless noted
# How it was run: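 Readout: BetaGlo luminescence (5 min, room temp) for LacZ from the normally silent maternal Peg3 allele in female Peg3LacZ-Neo ES cells. Cells 300/well, 40 h, 37C, 5% CO2. Data normalized per plate to negative controls.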
# Potency means the concentration at half of the fitted maximal effect; tags describe the fitted curve by direction and shape.
Structure (SMILES),Potency,"activity change, positive = activation"
CSc1nncn1/N=C/c1cc(Cl)ccc1F,"inconclusive: 5.01 µM [activator, single point]",–
Cc1cccc(CCNC(=O)c2ccc(CSCc3cccc(Cl)c3)o2)c1,–,inconclusive: 40.3% [activator]
Cc1cccc(NC(=O)CCN2CCN(c3ccccc3F)CC2)c1,–,inactive: -12.6%
COc1ccc(Cl)cc1S(=O)(=O)NCc1cccs1,"inconclusive: 5.01 µM [activator, single point]",–
Cc1ccc(C)c(Cn2c(CO)nc3ccccc32)c1,–,inactive: -23.6% [at 60.7 µM]
CCOC(=O)N1CCN(C(=O)c2ccc(CNS(=O)(=O)c3ccc(OC)cc3)cc2)CC1,"inconclusive: 15.8 µM [activator, single point]",–
COc1cc(C2Nc3cccc4cccc(c34)N2)ccc1OC(C)=O,–,inactive: -3.39% [at 60.7 µM]
CCCCC(=O)NCc1nc2cccnc2n1Cc1ccc(OC)cc1,–,inconclusive: 43.5% [activator]
Cc1ccccc1-c1nc2scc(CCNS(=O)(=O)c3ccccc3)n2n1,–,inactive: -10.5%
CC(C)(C)c1ccc(C(=O)NNc2ncnc3c2cnn3-c2ccccc2)cc1,–,inactive: -6.93%
CC(C)(C)CC(C)(C)c1cc(O)c(O)c(CN2CCCCC2)c1,–,inactive: -13.4%
COc1cc(CNC(=O)CSCc2nc3cccnc3n2C2CCCCC2)cc(OC)c1OC,–,inconclusive: 70.5% [activator]
Cc1cc2cc3c(=O)[nH]c(=O)[nH]c3nc2cc1C,"inconclusive: 5.01 µM [activator, single point]",–
Cc1cc(C)nc(SCC(=O)NCc2ccco2)n1,"inconclusive: 31.6 µM [activator, single point]",–
Cc1ccc2c(c1)nc(NCCO)n2C,"inconclusive: 0.01 µM [activator, single point]",–
Cc1ccc(NC(=O)CCCN2C(=O)COc3ccc(C)cc32)c(Cl)c1,–,inconclusive: 59.6% [activator]
COc1ccc(-n2nc(C(=O)N3CCN(c4cccc(C)c4)C(C)C3)c3c4ccccc4n(C)c3c2=O)cc1Cl (centres undefined),–,inconclusive: 31.3% [activator]
Cc1ccn2c(CCc3nnc4cc(C)ccn34)nnc2c1,–,inactive: -6.09%
COC(=O)C1=C(C)NC(C)=C([N+](=O)[O-])[C@@H]1c1ccccc1C(F)(F)F,inactive,–
COc1ccc(CCNC(=O)CSc2ncnc3c2oc2ccccc23)cc1OC,–,inconclusive: 41.1% [activator] [at 60.7 µM]
Cc1cc(C)cc(Nc2ncnc3sc4c(c23)CCCC4)c1,–,inconclusive: 32.4% [activator]
CCOC(=O)c1cc(-c2ccccc2)n(CC(=O)Nc2cc(Cl)c(OC)cc2OC)c1C,–,inactive: -10.2%
Cc1ccc(CNC(=O)CC(C)CC2=NS(=O)(=O)c3ccccc3N2)cc1 (centres undefined),–,inconclusive: 69.4% [activator]
CCOC(=O)c1cccc(NC(=O)c2cc3c(=O)n(C)c4ccccc4c3n2C)c1,–,inconclusive: 190% [activator]
CCOc1ccc(-n2c(SCC(=O)N3CCC(C)CC3)nc3c([nH]c4ccccc43)c2=O)cc1,–,inconclusive: 36.6% [activator]

Structure (SMILES),Potency,"activity change, positive = activation"
Cc1ccc(CN2CCCn3nc(C(=O)NC(C)C)cc3C2=O)cc1,–,inconclusive: 34.3% [activator]
O=C1Nc2ccc(S(=O)(=O)NCc3ccccn3)c3cccc1c23,"inconclusive: 15.8 µM [activator, single point]",–
N#Cc1cccc(-c2nccc(NCc3ccccc3)n2)c1,"inconclusive: 0.0398 µM [activator, full curve, poor fit]",–
CCOc1ccccc1O[C@@H](c1ccccc1)[C@@H]1CNCCO1,–,inactive: -19.1% [at 60.7 µM]
C=CCN(CC=C)S(=O)(=O)c1ccc(F)cc1,"inconclusive: 20 µM [activator, single point]",–
COCCNc1nc(C)nc2c1nc(-c1ccccc1)n2CCCN1CCCCC1C (centres undefined),–,inactive: -0.832% [at 60.7 µM]
Cc1ccc(-n2c(C)cc(C(=O)CSc3nncs3)c2C)cc1,–,inactive: -28.5% [at 60.7 µM]
COc1cc2c(cc1O)C(Cc1ccc(O)cc1)[N+](C)(C)CC2 (centres undefined),–,inactive: 8.26% [at 60.7 µM]
COc1ccc(CNS(=O)(=O)c2cc3c4c(c2)CCN4C(=O)CC3)cc1,–,inconclusive: 38.4% [activator]
CC(C)C(=O)N1c2nc(-c3ccco3)nn2C2(CCCCC2)[C@@H]2CCCC[C@@H]21,–,inconclusive: 55.1% [activator]
Cc1cc(C(=O)CSc2nnc(N)s2)c(C)n1CCc1ccc(Cl)cc1,"inconclusive: 3.16 µM [activator, partial curve]",–
COc1ccc(-c2cc(-c3ccccc3O)[nH]n2)cc1OC,–,inactive: -47.4% [at 60.7 µM]
Cc1cc(C)c(OCC(=O)N(Cc2ccc(N(C)C)cc2)CC2CCCO2)c(C)c1 (centres undefined),–,inactive: -18.1%
Cc1ccc(C)c(N(C)C(=O)c2cc3c(s2)-c2ccccc2OC3)c1,–,inactive: -20.6%
O=C(Cn1ncc2c3ccccc3n(Cc3cccc(Cl)c3)c2c1=O)NCCCc1ccccc1,–,inconclusive: 33.5% [activator]
Cc1cc(C)n(-c2ccc(C(=O)Nc3ccc(S(=O)(=O)NCc4ccco4)cc3)cc2)n1,"inconclusive: 5.01 µM [activator, single point]",–
COCCn1c(=O)c(-c2cccc(C#N)c2)nc2cnc(N(C)C)nc21,"inconclusive: 12.6 µM [activator, single point]",–
CCn1cc(C(=O)NCCc2ccc(OC)c(OC)c2)c(=O)c2cc(S(=O)(=O)N3CCOCC3)ccc21,–,inconclusive: 40.8% [activator]
CC1(C)Cc2c(sc3c2c(=O)n(Cc2ccccc2)c2nncn32)CO1,"inconclusive: 5.01 µM [activator, single point]",–
Cc1onc(-c2ccccc2)c1C(=O)Nc1ccccc1N1CCOCC1,"inconclusive: 31.6 µM [activator, partial curve]",–
C=CCn1c(NCc2ccccc2)nc2ccccc21,–,inactive: -3.76% [at 60.7 µM]
Fc1ccc(Nc2nc(SCc3cccc(Cl)c3)nc3ccccc23)cc1,–,inactive: -13%
CCc1nnc2c(N3CCN(c4cccc(C(F)(F)F)c4)CC3)nc3ccccc3n12,–,inactive: -3.9%
CC(C)Cn1c(=O)c2c(nc3n2CCCN3CCc2ccccc2)n(C)c1=O,"inconclusive: 10 µM [activator, partial curve, poor fit]",–
CC(=O)Nc1ccc(NC(=O)CSc2nccn2Cc2ccc3c(c2)OCO3)cc1,–,inconclusive: 67.7% [activator]

Structure (SMILES),Potency,"activity change, positive = activation"
CC1CCCN(CCCNC(=O)c2ccc3c(c2)N(Cc2cccc(Cl)c2)C(=O)c2ccccc2S3(=O)=O)C1 (centres undefined),–,inactive: -17%
CCc1ccc(C(=O)COC(=O)C(Cc2c[nH]c3ccccc23)NC(=O)c2ccc(CC)cc2)cc1 (centres undefined),–,inactive: -12.2%
COC(=O)c1ccc(C(NC(=O)OCc2ccccc2)/C(=C/[C@@H](C)C(=O)NCc2nc3ccccc3n2C)c2cccnc2)cc1 (some centres undefined),–,inactive: -8.3% [at 60.7 µM]
O=C(NC(NCc1ccccn1)(C(F)(F)F)C(F)(F)F)c1ccco1,"inconclusive: 5.01 µM [activator, single point]",–
COc1ccc(Cn2c(C)nc3oc4cc(OC)ccc4c(=O)c3c2=O)cc1,"inconclusive: 3.98 µM [activator, single point]",–
CC(=O)NCCNc1ncnc2ccc(-c3ccccc3Cl)cc12,"inconclusive: 5.01 µM [activator, single point]",–
CCNc1ncc2nc(-c3cccs3)c(=O)n(-c3ccccc3)c2n1,"inconclusive: 31.6 µM [activator, single point]",–
CCc1ccc(OCc2ccc(C(=O)NCc3ccccn3)o2)cc1,"inconclusive: 5.01 µM [activator, single point]",–
COc1ccc(NC(=O)c2c(NCc3cccc(F)c3)sc3c2CCC3)c(OC)c1,–,inconclusive: 39.5% [activator]
CCC(Oc1ccccc1)C(=O)Nc1cccc(OCc2cc(=O)n3cccc(C)c3n2)c1 (centres undefined),–,inactive: -6.58%
O=C(/C=C/N1CCOCC1)c1cc2ccccc2o1,–,inactive: -40.8% [at 60.7 µM]
CCn1cc(C(=O)NCCc2ccccc2)c(=O)c2cc(S(=O)(=O)N3CCCCCC3)ccc21,–,inconclusive: 40.6% [activator]
CCCCN(C)CCNC(=O)c1c[nH]c2ccc(S(=O)(=O)N(CC)CC)cc2c1=O,"inconclusive: 3.16 µM [activator, single point]",–
Cc1ccc(N2CC(NC(=O)c3ccc(S(=O)(=O)N(C)C)cc3)CC2=O)cc1C (centres undefined),–,inconclusive: 32.1% [activator]
O=C(CSc1nc2c([nH]c3ccccc32)c(=O)n1-c1cccc(Cl)c1)N1CCCC1,–,inconclusive: 47.8% [activator]
CCOc1ccccc1N1CC(C(=O)Nc2nccs2)CC1=O (centres undefined),"inconclusive: 20 µM [activator, single point]",–
CCN(CC)c1ccc(C(=O)N2CCc3c([nH]c4ccccc34)C2c2ccc(F)cc2)cc1 (centres undefined),–,inactive: -2.64%
Cc1ccc(NC(=O)Nc2nnc(SCC(=O)N(C(C)C)C(C)C)s2)cc1,–,inconclusive: 33.7% [activator]
Cc1noc(NS(=O)(=O)c2ccc(NC(=O)CSc3nc4c(cc3C#N)CCCC4)cc2)c1C,"inconclusive: 3.98 µM [activator, single point]",–
Nc1nc(=O)n(C2OC(CO)C(O)C2O)cc1Cl (centres undefined),"inconclusive: 1 µM [activator, single point]",–
CCC(=O)N1CCc2cc(S(=O)(=O)NC(Cc3ccccc3)C(=O)NCc3ccccc3)ccc21 (centres undefined),–,inconclusive: 31.6% [activator]
COC(=O)CC[C@@H](C)C1CC[C@H]2[C@H]3CC[C@H]4C[C@@H]5CCC4(C)[C@@]3(O5)[C@@H](Br)[C@@H](Br)[C@@]12C (some centres undefined),–,inactive: -9.9%
CCCCNC(=O)CCC(=O)NNc1nc2ccccc2c2nc(C)nn12,–,inactive: -6.94%
CCCNC(=O)c1ccc2c(c1)N=C(CCC)c1ccccc1S2,–,inactive: -17.5%
